# Results taken from the supplement of paper PMC8728848.
# This is one part of the list.
# B1: ArathEULS3 (Arabidopsis thaliana), Q945P1 (protein)
# chain: MEHHHQHHRHHQRDDGEDDRQSFGVPPPHVDAPPQPHGLYQSQPHFDPYAPTPQAPAPYRSETQFEPHAPPPYRSEPYFETPAPPPSFGHVSHVGHQSPNESYPPEHHRYGGYQQPSNSLLESHGDHSGVTHVAHHSSNQPQSSSGVYHKPDENRLPDNLAGLAGRATVKVYSKAEPNYNLTIRDGKVILAPADPSDEAQHWYKDEKYSTKVKDADGHPCFALVNKATGEAMKHSVGATHPVHLIRYVPDKLDESVLWTESKDFGDGYRTIRMVNNTRLNVDAYHGDSKSGGVRDGTTIVLWDWNKGDNQLWKIFPFILEQKLISEEDLNSAVDHHHHHH
# What was measured:
# Experiment in all cases: glycan array binding signal (z-score within array); higher = stronger binding
# Conditions in all cases: glycan notation: IUPAC condensed, linker removed
# [1] = target: Neu5Ac(a2-3)Gal(b1-4)[Fuc(a1-3)]GlcNAc(b1-3)Gal(b1-4)[Fuc(a1-3)]GlcNAc(b1-3)Gal(b1-4)[Fuc(a1-3)]GlcNAc
# Method in brief: (§1)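 The binding signal is a Z-score computed within each array and averaged over linkers. Arrays of the same protein sequence at different concentrations or buffers were also averaged together. Data originate from 3228 arrays in the Consortium for Functional Glycomics database, kept only where the protein sequence was available.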
# [2] = target: Neu5Ac(a2-3)Gal(b1-4)[Fuc(a1-3)]GlcNAc(b1-3)GalNAc
# Method in brief: as §1
# [3] = target: Neu5Ac(a2-3)Gal(b1-4)[Fuc(a1-3)]GlcNAc(b1-6)[Gal(b1-3)]GalNAc
# Method in brief: as §1
# [4] = target: Neu5Ac(a2-3)Gal(b1-4)[Fuc(a1-3)]GlcNAc6S
# Method in brief: as §1
# [5] = target: Neu5Ac(a2-3)Gal6S(b1-4)GlcNAc
# Method in brief: as §1
# [6] = target: Neu5Ac(a2-3)Gal6S(b1-4)[Fuc(a1-3)]GlcNAc
# Method in brief: as §1
# Neu5Ac(a2-3)GalNAc = target: Neu5Ac(a2-3)GalNAc
# Method in brief: as §1
# [7] = target: Neu5Ac(a2-3)GalNAc(b1-4)GlcNAc
# Method in brief: as §1
# [8] = target: Neu5Ac(a2-3)[GalNAc(b1-4)]Gal(b1-4)Glc
# Method in brief: as §1
# [9] = target: Neu5Ac(a2-3)[GalNAc(b1-4)]Gal(b1-4)GlcNAc
# Method in brief: as §1
# [10] = target: Neu5Ac(a2-3)[GalNAc(b1-4)]Gal(b1-4)GlcNAc(b1-3)GalNAc
# Method in brief: as §1
# [11] = target: Neu5Ac(a2-3)[Neu5Ac(a2-6)]GalNAc
# Method in brief: as §1
# Neu5Ac(a2-6)Gal = target: Neu5Ac(a2-6)Gal
# Method in brief: as §1
# [12] = target: Neu5Ac(a2-6)Gal(b1-3)GlcNAc(b1-3)[Gal(b1-4)GlcNAc(b1-6)]Gal(b1-4)Glc
# Method in brief: as §1
# Neu5Ac(a2-6)Gal(b1-4)Glc = target: Neu5Ac(a2-6)Gal(b1-4)Glc
# Method in brief: as §1
# [13] = target: Neu5Ac(a2-6)Gal(b1-4)GlcNAc
# Method in brief: as §1
# [14] = target: Neu5Ac(a2-6)Gal(b1-4)GlcNAc(b1-2)Man(a1-3)Man(b1-4)GlcNAc(b1-4)GlcNAc
# Method in brief: as §1
# [15] = target: Neu5Ac(a2-6)Gal(b1-4)GlcNAc(b1-2)Man(a1-3)[Gal(b1-4)GlcNAc(b1-2)Man(a1-6)]Man(b1-4)GlcNAc(b1-4)GlcNAc
# Method in brief: as §1
# [16] = target: Neu5Ac(a2-6)Gal(b1-4)GlcNAc(b1-2)Man(a1-3)[GlcNAc(b1-2)Man(a1-6)]Man(b1-4)GlcNAc(b1-4)GlcNAc
# Method in brief: as §1
# [17] = target: Neu5Ac(a2-6)Gal(b1-4)GlcNAc(b1-2)Man(a1-3)[GlcNAc(b1-2)Man(b1-4)GlcNAc(b1-2)Man(a1-6)]Man(b1-4)GlcNAc(b1-4)GlcNAc
# Method in brief: as §1
# [18] = target: Neu5Ac(a2-6)Gal(b1-4)GlcNAc(b1-2)Man(a1-3)[Man(a1-6)]Man(b1-4)GlcNAc(b1-4)GlcNAc
# Method in brief: as §1
# [19] = target: Neu5Ac(a2-6)Gal(b1-4)GlcNAc(b1-2)Man(a1-3)[Neu5Ac(a2-6)Gal(b1-4)GlcNAc(b1-2)Man(a1-6)]Man(b1-4)GlcNAc(b1-4)GlcNAc
# Method in brief: as §1
# [20] = target: Neu5Ac(a2-6)Gal(b1-4)GlcNAc(b1-2)Man(a1-3)[Neu5Ac(a2-6)Gal(b1-4)GlcNAc(b1-2)Man(a1-6)]Man(b1-4)GlcNAc(b1-4)[Fuc(a1-6)]GlcNAc
# Method in brief: as §1
# [21] = target: Neu5Ac(a2-6)Gal(b1-4)GlcNAc(b1-2)Man(a1-6)Man(b1-4)GlcNAc(b1-4)GlcNAc
# Method in brief: as §1
# [22] = target: Neu5Ac(a2-6)Gal(b1-4)GlcNAc(b1-2)Man(a1-6)[Gal(b1-4)GlcNAc(b1-2)Man(a1-3)]Man(b1-4)GlcNAc(b1-4)GlcNAc
# Method in brief: as §1
# [23] = target: Neu5Ac(a2-6)Gal(b1-4)GlcNAc(b1-2)Man(a1-6)[GlcNAc(b1-2)Man(a1-3)]Man(b1-4)GlcNAc(b1-4)GlcNAc
# Method in brief: as §1
# [24] = target: Neu5Ac(a2-6)Gal(b1-4)GlcNAc(b1-2)Man(a1-6)[Man(a1-3)]Man(b1-4)GlcNAc(b1-4)GlcNAc
# Method in brief: as §1
# [25] = target: Neu5Ac(a2-6)Gal(b1-4)GlcNAc(b1-3)Gal(b1-3)GlcNAc
# Method in brief: as §1
# [26] = target: Neu5Ac(a2-6)Gal(b1-4)GlcNAc(b1-3)Gal(b1-4)GlcNAc
# Method in brief: as §1
# [27] = target: Neu5Ac(a2-6)Gal(b1-4)GlcNAc(b1-3)Gal(b1-4)GlcNAc(b1-3)Gal(b1-4)GlcNAc
# Method in brief: as §1
# [28] = target: Neu5Ac(a2-6)Gal(b1-4)GlcNAc(b1-3)Gal(b1-4)[Fuc(a1-3)]GlcNAc(b1-3)Gal(b1-4)[Fuc(a1-3)]GlcNAc
# Method in brief: as §1
# [29] = target: Neu5Ac(a2-6)Gal(b1-4)GlcNAc(b1-3)GalNAc
# Method in brief: as §1
# [30] = target: Neu5Ac(a2-6)Gal(b1-4)GlcNAc(b1-3)[Neu5Ac(a2-6)Gal(b1-4)GlcNAc(b1-6)]GalNAc
# Method in brief: as §1
# [31] = target: Neu5Ac(a2-6)Gal(b1-4)GlcNAc(b1-6)GalNAc
# Method in brief: as §1
# [32] = target: Neu5Ac(a2-6)Gal(b1-4)GlcNAc(b1-6)[Gal(b1-3)GlcNAc(b1-3)]Gal(b1-4)Glc
# Method in brief: as §1
# [33] = target: Neu5Ac(a2-6)Gal(b1-4)GlcNAc6S
# Method in brief: as §1
# Neu5Ac(a2-6)GalNAc = target: Neu5Ac(a2-6)GalNAc
# Method in brief: as §1
# [34] = target: Neu5Ac(a2-6)GalNAc(b1-4)GlcNAc
# Method in brief: as §1
binder,measurement,setting,value
B1,glycan array binding signal (z-score),[1],-0.25
same,glycan array binding signal (z-score),[2],2
same,glycan array binding signal (z-score),[3],0.404
same,glycan array binding signal (z-score),[4],-0.191
same,glycan array binding signal (z-score),[5],-0.285
same,glycan array binding signal (z-score),[6],-0.271
same,glycan array binding signal (z-score),Neu5Ac(a2-3)GalNAc,-0.337
same,glycan array binding signal (z-score),[7],-0.246
same,glycan array binding signal (z-score),[8],-0.328
same,glycan array binding signal (z-score),[9],-0.114
same,glycan array binding signal (z-score),[10],0.825
same,glycan array binding signal (z-score),[11],0.039
same,glycan array binding signal (z-score),Neu5Ac(a2-6)Gal,0.091
same,glycan array binding signal (z-score),[12],-0.294
same,glycan array binding signal (z-score),Neu5Ac(a2-6)Gal(b1-4)Glc,0.145
same,glycan array binding signal (z-score),[13],0.011
same,glycan array binding signal (z-score),[14],-0.085
same,glycan array binding signal (z-score),[15],-0.154
same,glycan array binding signal (z-score),[16],-0.23
same,glycan array binding signal (z-score),[17],-0.223
same,glycan array binding signal (z-score),[18],-0.158
same,glycan array binding signal (z-score),[19],-0.066
same,glycan array binding signal (z-score),[20],-0.433
same,glycan array binding signal (z-score),[21],-0.277
same,glycan array binding signal (z-score),[22],-0.251
same,glycan array binding signal (z-score),[23],-0.089
same,glycan array binding signal (z-score),[24],-0.31
same,glycan array binding signal (z-score),[25],-0.157
same,glycan array binding signal (z-score),[26],-0.329
same,glycan array binding signal (z-score),[27],-0.178
same,glycan array binding signal (z-score),[28],-0.049
same,glycan array binding signal (z-score),[29],-0.213
same,glycan array binding signal (z-score),[30],-0.327
same,glycan array binding signal (z-score),[31],0.018
same,glycan array binding signal (z-score),[32],-0.239
same,glycan array binding signal (z-score),[33],-0.344
same,glycan array binding signal (z-score),Neu5Ac(a2-6)GalNAc,-0.43
same,glycan array binding signal (z-score),[34],-0.302
